# Results from the supplement of paper PMC10037445.
# “And” between values parts separate entries of the source, which are not always exact repeats. Identical values can stand only once. The full ranking holds about 2,900 compounds; the median of “NF-kB SEAP reporter activity, fold change vs agonist alone” is about 0.99, and the highest 2% start at about 2.6. The list shows a part of the results.
# Tests used:
# [1] = tested on: RAW-Dual; assay: NF-kB SEAP reporter activity, fold change vs agonist alone; cytotoxicity flag (confluency mask): cytotoxic (confluency <70% of control); higher = enhanced NF-kB activity
# Outline: (§1)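 Supernatant from RAW-Dual macrophages was read after 20 hours for IRF by QuantiLuc luminescence and for NF-κB by QuantiBlue absorbance at 620 nm. The cells (50,000 cells/well in DMEM, 384-well plates, 37 °C, 5% CO2) had received 50 nL of library stock by pin tool and, 1 h later, a PRR agonist. Reporter activity is expressed relative to agonist-alone wells as fold change, and wells were flagged cytotoxic if IncuCyte confluency was under 70% of agonist controls in both mask sets.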
# [2] = tested on: RAW-Dual; assay: NF-kB SEAP reporter activity, fold change vs agonist alone; higher = enhanced NF-kB activity; details: library stock concentration (final ~1000-fold dilution): 10 mM
# Outline: as §1
# [3] = tested on: RAW-Dual; assay: NF-kB SEAP reporter activity, fold change vs agonist alone; cytotoxicity flag (confluency mask): not cytotoxic; higher = enhanced NF-kB activity
# Outline: as §1
# [4] = agonist: ODN 1826 (TLR9) 0.5 ug/mL
# [5] = agonist: Pam2CSK4 (TLR2/6) 0.1 ug/mL
# [6] = agonist: Pam3CSK4 (TLR2/1) 0.1 ug/mL
# [7] = cytotoxicity flag (confluency mask): cytotoxic (confluency <70% of control), agonist: Imiquimod (TLR7) […]
# [8] = cytotoxicity flag (confluency mask): cytotoxic (confluency <70% of control), agonist: MPLA (TLR4) […]
# [9] = cytotoxicity flag (confluency mask): not cytotoxic, agonist: Imiquimod (TLR7) […]
# [10] = cytotoxicity flag (confluency mask): not cytotoxic, agonist: MPLA (TLR4) […]
structure (smiles),measurement,setting,value
CCN1CCN(Cc2ccc(C(=O)Nc3ccc(C)c(Oc4ccc5c(c4)CC(=O)N5)c3)cc2C(F)(F)F)CC1 (library stock concentration (final ~1000-fold dilution): 10 mM),NF-kB SEAP reporter activity,[1]; agonist: LPS (TLR4) 0.1 ug/mL,0.501
same,NF-kB SEAP reporter activity,[1]; [4],0.249
same,NF-kB SEAP reporter activity,[1]; [5],0.217
same,NF-kB SEAP reporter activity,[1]; [6],0.276
CCN1CCN(Cc2ccc(C(=O)Nc3ccc(C)c(Oc4ccc5c(c4)CC(=O)N5)c3)cc2C(F)(F)F)CC1,NF-kB SEAP reporter activity,[2]; [7],1.18
same,NF-kB SEAP reporter activity,[2]; [8],1.31
CS(=O)(=O)O.Cc1ccc(N(CC2=NCCN2)c2cccc(O)c2)cc1 (library stock concentration (final ~1000-fold dilution): 10 mM),NF-kB SEAP reporter activity,[3]; agonist: LPS (TLR4) 0.1 ug/mL,1.13
same,NF-kB SEAP reporter activity,[3]; [4],0.764
same,NF-kB SEAP reporter activity,[3]; [5],0.962
same,NF-kB SEAP reporter activity,[3]; [6],0.933
CS(=O)(=O)O.Cc1ccc(N(CC2=NCCN2)c2cccc(O)c2)cc1,NF-kB SEAP reporter activity,[2]; [9],1.15
same,NF-kB SEAP reporter activity,[2]; [10],1.03
NC(=O)c1ccc(OCCCN2CC3CCCC3C2)cc1 (configuration not stated),NF-kB SEAP reporter activity,[2]; [9],0.844
same,NF-kB SEAP reporter activity,[2]; [10],1.05
NC(=O)c1ccc(OCCCN2CC3CCCC3C2)cc1 (configuration not stated) (library stock concentration (final ~1000-fold dilution): 10 mM),NF-kB SEAP reporter activity,[3]; agonist: LPS (TLR4) 0.1 ug/mL,0.976
same,NF-kB SEAP reporter activity,[3]; [4],0.696
same,NF-kB SEAP reporter activity,[3]; [5],0.926
same,NF-kB SEAP reporter activity,[3]; [6],1.14
CC(=O)OC1CCC2(C)C(=CCC3C2CCC2(C)C(c4cccnc4)=CCC32)C1 (configuration not stated),NF-kB SEAP reporter activity,[2]; [9],1.12
same,NF-kB SEAP reporter activity,[2]; [10],1.05
CC(=O)OC1CCC2(C)C(=CCC3C2CCC2(C)C(c4cccnc4)=CCC32)C1 (configuration not stated) (library stock concentration (final ~1000-fold dilution): 10 mM),NF-kB SEAP reporter activity,[3]; agonist: LPS (TLR4) 0.1 ug/mL,0.898
same,NF-kB SEAP reporter activity,[3]; [4],1.06
same,NF-kB SEAP reporter activity,[3]; [5],0.97
same,NF-kB SEAP reporter activity,[3]; [6],1.97
CC1=NN(c2ccc(C)c(C)c2)C(=O)/C1=N\Nc1cccc(-c2cccc(C(=O)O)c2)c1O.NCCO.NCCO (library stock concentration (final ~1000-fold dilution): 10 mM),NF-kB SEAP reporter activity,[3]; agonist: LPS (TLR4) 0.1 ug/mL,2.92
same,NF-kB SEAP reporter activity,[3]; [4],1.31
same,NF-kB SEAP reporter activity,[3]; [5],1.58
same,NF-kB SEAP reporter activity,[3]; [6],1.34
CC1=NN(c2ccc(C)c(C)c2)C(=O)/C1=N\Nc1cccc(-c2cccc(C(=O)O)c2)c1O.NCCO.NCCO,NF-kB SEAP reporter activity,[2]; [9],1.57
same,NF-kB SEAP reporter activity,[2]; [10],1.64
CCOC(=O)/C=C/c1ccc(O)c(O)c1 (library stock concentration (final ~1000-fold dilution): 10 mM),NF-kB SEAP reporter activity,[3]; agonist: LPS (TLR4) 0.1 ug/mL,0.633 and 0.814
same,NF-kB SEAP reporter activity,[3]; [4],0.407 and 0.651
same,NF-kB SEAP reporter activity,[3]; [5],0.658 and 0.524
same,NF-kB SEAP reporter activity,[3]; [6],0.563 and 0.481
O=C(Oc1cc(S(=O)(=O)c2ccccc2)ccc1[N+](=O)[O-])c1ccc(Cl)cc1,NF-kB SEAP reporter activity,[2]; [10],2.59
O=C(Oc1cc(S(=O)(=O)c2ccccc2)ccc1[N+](=O)[O-])c1ccc(Cl)cc1 (library stock concentration (final ~1000-fold dilution): 10 mM),NF-kB SEAP reporter activity,[3]; agonist: LPS (TLR4) 0.1 ug/mL,5.2
Cc1ccc(=O)n(-c2ccccc2)c1 (library stock concentration (final ~1000-fold dilution): 10 mM),NF-kB SEAP reporter activity,[3]; agonist: LPS (TLR4) 0.1 ug/mL,1.15
same,NF-kB SEAP reporter activity,[3]; [4],1.03
same,NF-kB SEAP reporter activity,[3]; [5],0.979
same,NF-kB SEAP reporter activity,[3]; [6],1.14
Cc1ccc(=O)n(-c2ccccc2)c1,NF-kB SEAP reporter activity,[2]; [9],1.04
same,NF-kB SEAP reporter activity,[2]; [10],1.07
N#Cc1cc2cc(CN3CCC(Nc4ncnc5sc(CC(F)(F)F)cc45)CC3)ccc2[nH]1,NF-kB SEAP reporter activity,[2]; [9],1.15
same,NF-kB SEAP reporter activity,[2]; [10],1.25
N#Cc1cc2cc(CN3CCC(Nc4ncnc5sc(CC(F)(F)F)cc45)CC3)ccc2[nH]1 (library stock concentration (final ~1000-fold dilution): 10 mM),NF-kB SEAP reporter activity,[3]; agonist: LPS (TLR4) 0.1 ug/mL,1.57
same,NF-kB SEAP reporter activity,[3]; [4],0.19
same,NF-kB SEAP reporter activity,[3]; [5],1.1
same,NF-kB SEAP reporter activity,[3]; [6],0.795
CC(=O)OCC1OC([S-])C(OC(C)=O)C(OC(C)=O)C1OC(C)=O.CCP(CC)CC.[Au+] (configuration not stated) (library stock concentration (final ~1000-fold dilution): 10 mM),NF-kB SEAP reporter activity,[1]; agonist: LPS (TLR4) 0.1 ug/mL,0.177
same,NF-kB SEAP reporter activity,[1]; [4],0.184
same,NF-kB SEAP reporter activity,[1]; [5],0.0867
same,NF-kB SEAP reporter activity,[1]; [6],0.137
CC(=O)OCC1OC([S-])C(OC(C)=O)C(OC(C)=O)C1OC(C)=O.CCP(CC)CC.[Au+] (configuration not stated),NF-kB SEAP reporter activity,[2]; [7],0.212
same,NF-kB SEAP reporter activity,[2]; [8],0.215
COC1CC2CCC(C)C(O)(O2)C(=O)C(=O)N2CCCCC2C(=O)OC(C(C)CC2CCC(OP(C)(C)=O)C(OC)C2)CC(=O)C(C)C=C(C)C(O)C(OC)C(=O)C(C)CC(C)C=CC=CC=C1C (configuration not stated) (library stock concentration (final ~1000-fold dilution): 10 mM),NF-kB SEAP reporter activity,[3]; agonist: LPS (TLR4) 0.1 ug/mL,1.05
same,NF-kB SEAP reporter activity,[3]; [4],0.988
same,NF-kB SEAP reporter activity,[3]; [5],0.639
same,NF-kB SEAP reporter activity,[3]; [6],0.767
COC1CC2CCC(C)C(O)(O2)C(=O)C(=O)N2CCCCC2C(=O)OC(C(C)CC2CCC(OP(C)(C)=O)C(OC)C2)CC(=O)C(C)C=C(C)C(O)C(OC)C(=O)C(C)CC(C)C=CC=CC=C1C (configuration not stated),NF-kB SEAP reporter activity,[2]; [9],1.34
same,NF-kB SEAP reporter activity,[2]; [10],1.24
Cl.Nc1ccc(N=Nc2ccccc2)c(N)n1,NF-kB SEAP reporter activity,[2]; [9],1.1
same,NF-kB SEAP reporter activity,[2]; [10],1.08
Cl.Nc1ccc(N=Nc2ccccc2)c(N)n1 (library stock concentration (final ~1000-fold dilution): 10 mM),NF-kB SEAP reporter activity,[3]; agonist: LPS (TLR4) 0.1 ug/mL,1.22
same,NF-kB SEAP reporter activity,[3]; [4],0.928
same,NF-kB SEAP reporter activity,[3]; [5],1.09
same,NF-kB SEAP reporter activity,[3]; [6],0.933
COc1ccc(-n2c(SCCCN3C(=O)c4cccc5cccc(c45)C3=O)nnc2-c2ccncc2)cc1,NF-kB SEAP reporter activity,[2]; [9],1.08
same,NF-kB SEAP reporter activity,[2]; [10],1.32
COc1ccc(-n2c(SCCCN3C(=O)c4cccc5cccc(c45)C3=O)nnc2-c2ccncc2)cc1 (library stock concentration (final ~1000-fold dilution): 10 mM),NF-kB SEAP reporter activity,[3]; agonist: LPS (TLR4) 0.1 ug/mL,2.06
same,NF-kB SEAP reporter activity,[3]; [4],1.17
same,NF-kB SEAP reporter activity,[3]; [5],1.3
same,NF-kB SEAP reporter activity,[3]; [6],2.18
